# Laboratory results reported in PubChem BioAssay (Tox21).
# “And” between values parts separate entries of the source, which are not always exact repeats. Equal values may be shown once. This list was built around the results that the source calls inconclusive (neither active nor inactive); the mix of calls is not that of the screen. For part of these data: Where the call is inconclusive, the potency comes from a doubtful curve fit. More than one record can exist for a structure, and the calls need not agree. The source made the active and inactive calls. Unless noted, calls follow the shape of the dose curve; as a rule, active = well fitted curve in the direction sought with a large enough effect in the repeat runs; inconclusive = weak or mixed curves; inactive = no such curve, though single readings can be large; an effect the other way counts as inactive or inconclusive.
# Tests used:
# [1] = qHTS assay to identify small molecule agonists of the TGF-beta/Smad signaling pathway (AID 1346859; active = well fitted activation curve with a large enough effect in the signal ratio in the repeat runs, not every such curve was filed as active; inconclusive = weak or mixed curves; the % refers to the signal ratio; also: potency is read from the fitted curve at half-maximal effect; as to activation: % is scaled to controls: 0 for no effect and ±100 for the full control effect); conditions: SBE-bla HEK293T, TGF-beta/Smad beta-lactamase reporter, 5 h; activation: at 76.8 µM (top of the series)
# Procedure, shortened: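 Screening used HEK 293T SBE-bla cells at 4,000/well. Test agents: 5 hr, 37 C. Detection: FRET substrate, 2 hr RT, then excitation 405 nm with emissions at 460 and 530 nm.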
# [2] = Caspase-3/7 induction in CHO-K1 cells by small molecules, qHTS cell viability counter screen (AID 1346979); conditions: CellTiter-Fluor fluorescence, 17 h; activity change, negative = cytotoxicity: at 92.4 µM (top of the series); also: nearly all actives have a fitted effect of over 35% in size; also: potency is read from the fitted curve at half-maximal effect; as to activity change, negative = cytotoxicity: % is scaled to controls: 0 for no effect and ±100 for the full control effect
# Procedure, shortened: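 Following a 5hr settling period, CHO-K1 cells at 1,500 per well received DMSO-dissolved compounds. Cell viability was quantified 16hr later by CellTiter-Fluor fluorescence, measured after 1hr with reagent at 37C.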
# [3] = Caspase-3/7 induction in CHO-K1 cells by small molecules, qHTS assay (AID 1346980); also: nearly all actives have a fitted effect of over 15% in size; also: potency is read from the fitted curve at half-maximal effect
# Procedure, shortened: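 Wild-type CHO-K1 cells exposed to compounds for 17hr at 37 C, 5% CO2. Caspase-3/7 activity then measured by Caspase-Glo 3/7 luminescence after 30min at room temperature.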
# [4] = biological target: Cytochrome P450 2D6 (Homo sapiens) (UniProt P10635); experiment: Cytochrome P450 Family 2 Subfamily D Member 6 (CYP2D6) small molecule antagonists: luciferase reporter qHTS assay (AID 1671196); also: nearly all actives have a fitted effect of over 50% in size; also: potency is read from the fitted curve at half-maximal effect
# UniProt P10635, sequence (P10635 whole entry, looked up): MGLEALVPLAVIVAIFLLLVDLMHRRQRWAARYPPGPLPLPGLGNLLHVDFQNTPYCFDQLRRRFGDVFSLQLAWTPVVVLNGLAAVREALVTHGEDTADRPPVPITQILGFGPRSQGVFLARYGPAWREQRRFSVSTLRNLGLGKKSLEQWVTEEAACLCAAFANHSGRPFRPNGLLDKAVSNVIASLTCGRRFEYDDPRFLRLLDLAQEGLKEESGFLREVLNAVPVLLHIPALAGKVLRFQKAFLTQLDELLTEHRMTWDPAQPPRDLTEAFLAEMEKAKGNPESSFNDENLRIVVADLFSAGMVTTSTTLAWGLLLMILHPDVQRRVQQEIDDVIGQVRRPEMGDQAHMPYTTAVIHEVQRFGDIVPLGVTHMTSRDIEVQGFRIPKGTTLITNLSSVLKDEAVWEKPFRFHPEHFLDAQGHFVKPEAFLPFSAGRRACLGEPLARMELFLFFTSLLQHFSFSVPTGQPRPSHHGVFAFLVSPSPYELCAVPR
# Procedure, shortened: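 Read-out is luminescence from luciferin formed by CYP2D6 turnover of a proluciferin substrate, recorded as relative luminescence units. Reactions ran 1 h at room temperature after NADPH regeneration solution was added.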
# [5] = biological target: Cytochrome P450 2C19 (Homo sapiens) (UniProt P33261); experiment: Cytochrome P450 Family 2 Subfamily C Member 19 (CYP2C19) small molecule antagonists: luciferase reporter qHTS assay (AID 1671197); also: potency is read from the fitted curve at half-maximal effect; nearly all actives have a fitted effect of over 65% in size
# UniProt P33261, sequence (P33261 whole entry, looked up): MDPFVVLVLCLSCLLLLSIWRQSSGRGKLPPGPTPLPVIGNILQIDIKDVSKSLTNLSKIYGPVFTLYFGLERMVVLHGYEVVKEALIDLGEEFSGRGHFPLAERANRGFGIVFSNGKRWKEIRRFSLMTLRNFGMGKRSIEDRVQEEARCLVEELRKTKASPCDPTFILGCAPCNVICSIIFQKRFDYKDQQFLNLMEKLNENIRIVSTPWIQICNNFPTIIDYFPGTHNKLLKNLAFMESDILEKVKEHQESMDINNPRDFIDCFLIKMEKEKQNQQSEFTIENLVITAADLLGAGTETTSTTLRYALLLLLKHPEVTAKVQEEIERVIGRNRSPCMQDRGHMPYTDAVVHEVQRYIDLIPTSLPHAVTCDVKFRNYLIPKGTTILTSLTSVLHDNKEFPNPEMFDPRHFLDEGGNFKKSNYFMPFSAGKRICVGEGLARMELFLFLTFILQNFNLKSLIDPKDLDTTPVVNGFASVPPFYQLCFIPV
# Procedure, shortened: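 First, compounds are pinned into enzyme-substrate mix and held 10 min at room temperature. Second, NADPH regeneration solution is added and plates incubate 1 h at 37C. Third, detection reagent is added and luminescence read after 20 min.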
# [6] = biological target: Cytochrome P450 2C9 (Homo sapiens) (UniProt P11712); experiment: Cytochrome P450 Family 2 Subfamily C Member 9 (CYP2C9) small molecule antagonists: luciferase reporter qHTS assay (AID 1671198); also: nearly all actives have a fitted effect of over 50% in size; also: potency is read from the fitted curve at half-maximal effect
# UniProt P11712, sequence (P11712 whole entry, looked up): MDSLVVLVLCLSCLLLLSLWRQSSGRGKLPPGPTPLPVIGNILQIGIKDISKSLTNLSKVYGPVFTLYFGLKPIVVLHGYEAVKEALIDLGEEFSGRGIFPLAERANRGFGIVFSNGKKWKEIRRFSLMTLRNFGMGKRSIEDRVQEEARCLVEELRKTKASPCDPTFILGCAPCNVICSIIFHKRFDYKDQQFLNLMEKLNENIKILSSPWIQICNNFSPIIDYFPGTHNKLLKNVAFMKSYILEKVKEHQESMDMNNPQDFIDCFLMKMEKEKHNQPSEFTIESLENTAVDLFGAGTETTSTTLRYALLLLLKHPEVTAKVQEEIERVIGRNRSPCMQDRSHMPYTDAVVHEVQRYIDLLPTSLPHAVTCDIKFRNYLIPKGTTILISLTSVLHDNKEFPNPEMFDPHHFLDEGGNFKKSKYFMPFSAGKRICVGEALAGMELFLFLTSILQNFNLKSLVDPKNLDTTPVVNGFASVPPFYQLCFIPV
# Procedure, shortened: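 P450-Glo proluciferin substrate with CYP2C9 enzyme; 10 min RT preincubation, then NADPH regeneration 1 h at 37C; luciferin detection reagent 20 min RT, luminescence in relative luminescence units.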
# [7] = Human pregnane X receptor (PXR) small molecule agonists, qHTS cell viability counter screen (AID 1346977); also: potency is read from the fitted curve at half-maximal effect; nearly all actives have a fitted effect of over 50% in size
# Procedure, shortened: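 In each well, the PXR reporter HepG2 line was checked for viability: CellTiter-Fluor reagent added 23hr post-dosing, fluorescence read after 1hr incubation at 37C.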
# [8] = biological target: Nuclear receptor subfamily 1 group I member 2 (Rattus norvegicus) (UniProt Q9R1A7); experiment: Rat pregnane X receptor (rPXR) activation by small molecules, qHTS assay (AID 1346983); conditions: rPXR luciferase reporter cells, One-Glo luminescence, 24 h; max activation: stronger effect = higher value; also: % is scaled to controls: 0 for no effect and ±100 for the full control effect; nearly all actives have a fitted effect of over 20% in size
# UniProt Q9R1A7, sequence (Q9R1A7 whole entry, looked up): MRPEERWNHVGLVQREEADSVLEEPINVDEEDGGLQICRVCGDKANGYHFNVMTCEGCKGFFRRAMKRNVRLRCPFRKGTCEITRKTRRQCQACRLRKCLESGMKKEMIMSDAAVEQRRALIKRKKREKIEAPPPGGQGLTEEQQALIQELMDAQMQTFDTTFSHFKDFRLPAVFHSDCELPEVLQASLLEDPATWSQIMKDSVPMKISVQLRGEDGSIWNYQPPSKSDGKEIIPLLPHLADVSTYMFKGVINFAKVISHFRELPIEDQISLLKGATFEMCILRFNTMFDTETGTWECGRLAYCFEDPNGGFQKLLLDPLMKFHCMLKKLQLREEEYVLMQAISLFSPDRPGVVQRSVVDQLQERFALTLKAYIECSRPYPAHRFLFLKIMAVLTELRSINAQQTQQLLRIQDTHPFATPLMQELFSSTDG
# Procedure, shortened: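 Cell-based rPXR activation assay: rPXR cells, 2,000 per well, rested 5hr at 37 C, then exposed to compounds in DMSO for 24 hr at 37 C. Luciferase activity read by One-Glo luminescence after 30 min at room temperature.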
# [9] = biological target: Nuclear receptor subfamily 1 group I member 2 (Homo sapiens) (UniProt O75469); experiment: CYP3A4 induction through human pregnane X receptor (PXR) by small molecules, qHTS assay (AID 1346984); also: nearly all actives have a fitted effect of over 40% in size; also: potency is read from the fitted curve at half-maximal effect
# Procedure, shortened: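 Luminescence readout: luciferase signal after One-Glo (30 min, room temperature), following 3 h at 37C with 3uM final Luciferin-IPA P450 substrate. Cells were DPX-2 (HepG2, PXR/CYP3A4-luc co-transfected) dosed for 24 h.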
# [10] = biological target: Nuclear receptor subfamily 1 group I member 2 (Homo sapiens) (UniProt O75469); experiment: Human pregnane X receptor (PXR) small molecule agonists, qHTS assay (AID 1346982); also: nearly all actives have a fitted effect of over 35% in size; also: potency is read from the fitted curve at half-maximal effect; as to activation: % is scaled to controls: 0 for no effect and ±100 for the full control effect
# Procedure, shortened: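 Luciferase signal from ONE-Glo (30 min, room temperature) measured activation of hPXR-driven CYP3A4 reporter expression in PXR-Luc HepG2 cells treated with compounds for 24 hr at 37 C.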
# [11] = qHTS assay to identify small molecule antagonists of the TGF-beta/Smad signaling pathway (AID 1346924; active = well fitted inhibition curve with a large enough effect in the signal ratio in the repeat runs, not every such curve was filed as active; inconclusive = weak or mixed curves; the % refers to the signal ratio; also: potency is read from the fitted curve at half-maximal effect); conditions: SBE-bla HEK293T, TGF-beta/Smad reporter, beta-lactamase ratio; activity, negative = inhibition: at 76.8 µM (top of the series) unless noted
# Procedure, shortened: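 SBE-bla HEK 293T cells were plated overnight, then received compound in DMSO plus TGF-beta1 (added as a 0.25 ng/mL solution) and were incubated 5 h at 37 C. Beta-lactamase reporter activity was read after 2 h at room temperature with LiveBLAzer B/G FRET substrate (ex 405, em 460/530 nm).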
# [12] = Caspase-3/7 induction in HepG2 cells by small molecules, qHTS cell viability counter screen (AID 1346981); also: nearly all actives have a fitted effect of over 30% in size; also: potency is read from the fitted curve at half-maximal effect; as to activity change, negative = cytotoxicity: % is scaled to controls: 0 for no effect and ±100 for the full control effect
# Procedure, shortened: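 HepG2, WT, 2,000 cells/well; 5 hr pre-incubation 37 C/5% CO2; compound pin-transferred from DMSO; 16 hr exposure; CellTiter-Fluor, 1 hr; fluorescence read.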
# [13] = biological target: Nuclear receptor subfamily 1 group I member 2 (Homo sapiens) (UniProt O75469); experiment: Human pregnane X receptor (PXR) activation by small molecules, qHTS assay (AID 1346985); also: potency is read from the fitted curve at half-maximal effect; nearly all actives have a fitted effect of over 40% in size
# Procedure, shortened: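 DPX-2 cells (HepG2 co-transfected with a PXR response element and a CYP3A4-promoter luciferase construct) were seeded at 2,000 per well, rested 5 hr at 37C, then exposed to DMSO-dissolved compounds for 24 hr. Activation was read as luciferase luminescence.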
# Tags tell the direction and shape of the fitted curve or compound fluorescence and quenching.
structure (smiles),measurement,setting,value
O=C1CCCCCCCCCCOCCCCO1,Potency,[1],"inconclusive: 54.9 µM [rising, single point]"
same,Potency,[2],inactive
same,Potency,[3],"inconclusive: 68.6 µM [activator, partial curve, poor fit]"
same,Potency,[4],inactive
same,Potency,[5],"inconclusive: 89.4 µM [inhibitor, single point]"
same,Potency,[6],inconclusive: 63.3 µM [inhibitor]
CCCCCCCC/C=C\CCCCCCCC(=O)O,Potency,[1],inactive
same,Potency,[3],inactive
same,Potency,[6],"inconclusive: 89.9 µM [inhibitor, partial curve, poor fit]"
O=C1[C@H]2CCCC[C@H]2C(=O)N1CCCCN1CCN(c2nsc3ccccc23)CC1,Potency,[1],inactive
same,Potency,[7],"inconclusive: 33.5 µM [cytotoxic, single point]"
same,max activation,[8],inactive: 2.09%
same,Potency,[9],"inconclusive: 10 µM [activator, partial curve, poor fit]"
same,Potency,[4],"inconclusive: 30.9 µM [inhibitor, partial curve]"
COC(=O)CC(=O)OC,Potency,[1],"inconclusive: 45.5 µM [activator, partial curve]"
same,Potency,[10],active: 56.7 µM and inactive
same,Potency,[6],"inconclusive: 58.7 µM [inhibitor, partial curve, poor fit]"
O=C(C1CCCCC1)N1CC(=O)N2CCCc3ccccc3C2C1 (stereo unspecified),Potency,[1],"inconclusive: 7.56 µM [rising, partial curve]"
same,Potency,[11],"inconclusive: 23.9 µM [fluorescent, partial curve, poor fit]"
same,Potency,[10],active: 7.5 µM
c1ccc(CC2=NCCN2)cc1,Potency,[1],inactive
same,Potency,[12],inactive
CC/C=C\C/C=C\C/C=C\CCCCCCCC(=O)OCC,"activity, negative = inhibition",[11],inconclusive: -4.57%
same,Potency,[2],inconclusive: 70.1 µM [cytotoxic]
same,Potency,[3],"inconclusive: 70.1 µM [activator, single point]"
same,Potency,[10],"inconclusive: 70.1 µM [activator, single point]"
same,Potency,[4],"inconclusive: 72.7 µM [inhibitor, partial curve]"
CCOC(=O)C(C)Oc1ccc(Oc2cnc3cc(Cl)ccc3n2)cc1 (stereo unspecified),Potency,[1],"inconclusive: 25.1 µM [rising, partial curve] and inconclusive: 23 µM [rising, partial curve]"
same,Potency,[11],"inconclusive: 12.6 µM [fluorescent, partial curve, poor fit]"
same,Potency,[4],"active: 32.5 µM and inconclusive: 33.3 µM [inhibitor, full curve]"
same,Potency,[5],inconclusive: 32.5 µM [inhibitor]
same,Potency,[6],"inconclusive: 12.9 µM [inhibitor, full curve]"
O=C1c2c(O)ccc(Nc3ccc(CCO)cc3)c2C(=O)c2c([N+](=O)[O-])ccc(O)c21,"activity, negative = inhibition",[11],inconclusive: -5.46%
same,Potency,[2],active: 54.5 µM
same,Potency,[12],active: 54.5 µM
same,Potency,[10],inconclusive: 21.7 µM [activator]
same,Potency,[4],"inconclusive: 44.8 µM [inhibitor, partial curve]"
Nc1ccc2cc(S(=O)(=O)O)cc(O)c2c1N=Nc1ccccc1C(F)(F)F,"activity, negative = inhibition",[11],inconclusive: 6.53%
O=C1CCCCCCCCCCCCCCO1,Potency,[1],inactive
same,"activity, negative = inhibition",[11],inconclusive: 16.2%
same,Potency,[6],"inconclusive: 79.6 µM [inhibitor, partial curve, poor fit]"
COc1ccc(N)c([N+](=O)[O-])c1,Potency,[1],inactive
same,Potency,[7],"inconclusive: 61.1 µM [cytotoxic, partial curve, poor fit]"
same,Potency,[2],"inconclusive: 43.3 µM [cytotoxic, partial curve]"
same,Potency,[12],inconclusive: 68.6 µM [cytotoxic]
same,Potency,[10],"inconclusive: 61.1 µM [activator, partial curve]"
same,Potency,[4],"inconclusive: 39.9 µM [inhibitor, partial curve]"
same,Potency,[5],inconclusive: 79.6 µM [inhibitor]
same,Potency,[6],"inconclusive: 28.3 µM [inhibitor, partial curve]"
CCCCOC(=O)CC,Potency,[1],inactive
same,Potency,[5],"inconclusive: 89.2 µM [inhibitor, single point]"
CCCCCCCCCC(=O)O,Potency,[1],"inconclusive: 43.7 µM [rising, partial curve, poor fit]"
same,Potency,[4],inactive
same,Potency,[5],"inconclusive: 63.4 µM [inhibitor, single point]"
same,Potency,[6],"inconclusive: 79.8 µM [inhibitor, partial curve]"
CC[C@@H](N)CO,Potency,[1],inactive
same,Potency,[6],inactive
OCC(F)(F)F,Potency,[1],inactive
same,Potency,[4],inactive
CN(C)CCOC(c1ccc(Cl)cc1)c1ccccn1 (stereo unspecified),Potency,[1],inactive
same,"activity, negative = inhibition",[11],inconclusive: 0.754% [at 35.3 µM]
same,Potency,[9],inactive
same,Potency,[13],"inconclusive: 17.8 µM [activator, partial curve, poor fit]"
O=C(O)Cc1ccc2c(c1)C(=O)c1ccccc1CO2,Potency,[1],"inconclusive: 21.3 µM [rising, partial curve]"
same,"activity, negative = inhibition",[11],inconclusive: 16.1% [at 35.3 µM]
same,Potency,[6],inactive
